Measurements: the supplement of paper PMC11417369
Some of the results follow.

system: PfHDP1 homeodomain (GST-tagged); test: gcPBM binding intensity (ln(normalized median fluorescence intensity)); higher = stronger DNA binding
Outline: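 Probes on an Agilent 4 × 180k array were primer-extended, double-stranded and 36 bp long, taken from intergenic genomic regions, with negative controls added. GST-tagged P. falciparum DNA-binding domains from E. coli, about 25 μg on average, were applied to the array for 1 h in 1× PBS containing 1% milk, 0.2 mg/ml BSA, 0.5% salmon testes DNA and 0.03% Triton X-100. Binding intensity, obtained after Alexa488 anti-GST antibody detection and a 488 nm scan, is the highest Masliner-normalised natural-log median intensity across replicate spots of either probe orientation.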

Point of comparison: “GAAATAATTTTTATTTGTACACACATACATATATAT [XGTACX_site1862]”, “gcPBM binding intensity (ln)” value 6.63. Against it:
- AACAATAGTAAAAATACACACATTAAACTTCATTTC [CACACA_site2126] — lower, 6.24
- ATATATATATATCACGCACACACGAATTTTAAATAT [CACACA_site3131] — higher, 8.95
- AAAAAAATTACGCAAGTGCATATAATTTAACAAAAA — higher, 8.39
- AATGGTAATCCACATACACACACACCGACACATATA [CACACA_site8876] — higher, 6.83
- AACATTTATATAAAAGAACACACATATAAAATATTA [CACACA_site9199] — lower, 6.45
- ATCGCGAAGTAGCATTCACACACAGCAAAATATATA [CACACA_site9162] — higher, 6.65
- AATGGTATAAACAATACACACATAATATAAATATTG [CACACA_site6878] — lower, 6.42
- TTATATATAAATGTGTGTACTTATAAAATAATCATT [XGTACX_site5370] — lower, 6.5
- ATAGGCAAAAAGTGTACACATTCATTTATATAAATA [CACACA_site4480] — higher, 7.08
- AGATCTATTATTTTTTGTACTTATATATAAACTTAA [XGTACX_site1737] — lower, 6.6
- CATATATAAATATGTACACACATATGTATGATCTCA [CACACA_site3868] — lower, 6.36
- TTATTTATAAGTAATATTATATATTCTTTTAATACA [CACACA_negctrl_site471] — lower, 5.92
- TTCTATATATTTGGAAGTACATTATATTTATTTTTT [XGTACX_site3172] — lower, 6.18
- TAAAATTTTTGTTTTTGTACGAAACATCAATTTTAC [XGTACX_site4963] — lower, 6.23
- TAACATTAAAATAAAAGTACTTAATAATATTAAGTA [XGTACX_site5920] — lower, 6.23
- AAAAAAAATATCTATGCATGTAATATTATGATATTG [TGCATGCA_site546] — lower, 6.39
- TTAATAATAAATGAAAGTACATATAAAAAAAAAAAA [XGTACX_site717] — lower, 6.4
- CGTATAACATATGACACACACACATACATACACAAA [CACACA_site1803] — higher, 7.04
- GATTTATATAATTCAAGTACTAAAAATATTTTTAAT [XGTACX_site5285] — lower, 6.51
- ATACATATATGTGTGTGTACATAAATGTATATATTT [XGTACX_site6242] — the same, 6.63
- GTATCTTTCAAAATATGTACATATATATATGTGTGT [XGTACX_site3512] — higher, 7.14
- AACTTTATTCCTAATTGTACACATATATATATATAT [XGTACX_site6823] — higher, 9.08
- GCATGGAACCATATATGTACATATATAAATAAATAA [XGTACX_site4996] — higher, 6.85
- AATAGTAAAAGATATACACACACCAAAAAATAGAAT [CACACA_site2289] — higher, 7.32
- ATTATACATATGTATGCACACATACATACACATATA [CACACA_site9155] — higher, 9.74
- ATATATATATGTTTATGTACTTATAATAATATAACT [XGTACX_site4828] — higher, 8.33
- TAATTTAAGAAAAAATGTACACAAATATAATAATAG [XGTACX_site8317] — higher, 6.98
- AATGTATTTAAACTGACACACAAAAAAAATAAAATA [CACACA_site2138] — higher, 6.91
- ATATTGTAAGTAAACACACACACATCTATAGGTATA [CACACA_site6462] — higher, 6.77
- TTTAAAATATTAAAATGTACATATATATATATATAT [XGTACX_site6784] — higher, 9.27
- ACATAAATATATTTTTCACACATCCTTAGTTATGAA [CACACA_site5179] — higher, 6.86
- TATATATATATATATACACACATACATATATATATT [CACACA_site8185] — higher, 9.43
- AAATATAAAAAATATACACACATATATAATATATAT [CACACA_site2963] — lower, 6.52
- TAAGACTATTAAAAAATTGAGTACATGAACTGTTCA [GTGCAC_negctrl_site670] — lower, 5.93
- TGTATATTTGATTCATGTACATATTTTATTTTAACT [XGTACX_site5169] — lower, 6.49
- CCTATATAATTATAATGTACTTGTAAAAAATATAAC [XGTACX_site2864] — higher, 6.77
- CAGATTTATTCAAACGCATGCTGTTTTAAAATAAAA [TGCATGCA_site874] — lower, 6.15
- TATTCAATACTTAATGCACACAATAAAAAAAATATG [CACACA_site2467] — higher, 10.5
- ACGATAACATTTTTACGTACATATATTTTCACGGAG [XGTACX_site8764] — lower, 6.46
- TTTTCAAAAATATATACACACATGCATATTACGGTG [CACACA_site775] — higher, 7.02
- TACATGATAAGATGTAGTACATAAAAGAATAAATTA [XGTACX_site787] — lower, 6.49
- ATATATATATATAAGCGTACGCGTAGTTAAATTAAT [XGTACX_site7693] — higher, 9.12
- TATGTTATATTGGACACACACAATAAACATTATGTA [CACACA_site1657] — lower, 6.27
- ACAAAAAAAATAAGCACACATATATATATATATATA [CACACA_site816] — higher, 9.27
- ATATTGACAGGAAAAATTTTCTTTGAATCTTTAAAA [CACACA_negctrl_site1191] — lower, 6.11
- TAAAATATTTCAAAGGTGCAATGATAATTTAAGACG [GTGCAC_site9609] — higher, 8.47
- AAATGAAAAATAAGGAAAAAAAAAAAAAAAAAAAAA [CACACA_negctrl_site1715] — lower, 6.31
- ATAATATTTATAAATTGTACTAATGTTCAATAATTA [XGTACX_site7284] — lower, 6.25
- TTTTGTCGGAAATCGGATAAGAAGAAAAAAAATAAT [GTGCAC_negctrl_site594] — lower, 6.61
- AAAAAAAAAAAAAGTACACACATACATATAAATATA [CACACA_site8533] — lower, 6.38
- TTCACTCCATATTATACACACACACTAATGAAAAAA [CACACA_site8991] — higher, 7.24
- CCACTAATTATGTGCACACAAATTAAAGGTCTACAA [CACACA_site4259] — higher, 11.4
- AAATTTTATAAAGGAACACACATTTTTTTTTTTTCT [CACACA_site2368] — lower, 6.13
- TTATTCATTTCGAAAAGTACAAATTCTGTTTATTAT [XGTACX_site6892] — lower, 6.4
- AAATTTTTTGTTCAATGTACTTTTTTATTATATTTT [XGTACX_site5298] — lower, 6.49
- TCTACTATTATATATTGTACAAATGATACTTATATT [XGTACX_site1819] — lower, 6.61
- ATTTTTTAAATTTAAACACACATTTTGTATATGTTT [CACACA_site1654] — higher, 6.84
- GATATATAATATAATACACACATTTTATGAATGTAA [CACACA_site24] — lower, 6.54
- AAAAAAAAAAAACATACACACATACATACAGATATA [CACACA_site4681] — lower, 6.56
- TTCTTTTTGAAACACACACACACAAGAAAATATATA [CACACA_site3110] — higher, 7.04
- TTCTATTTTATATGTGCACACATATACACCCACAAA [CACACA_site1130] — higher, 10.9
- TTTCACTACACAAATACACACAAAAATATATGTGCA [CACACA_site2632] — higher, 7.11
- CGTTATATCAAAGGAGTGCATTATGAATACGTTTTA [GTGCAC_site9837] — higher, 8.79
- AGTGAATATCTAAAATGTACATAAATAAATAAATAA [XGTACX_site8293] — higher, 6.74
- AATATATTATATATATGTACATAATGTGTAATACCT [XGTACX_site2845] — higher, 7
- TTAAAATTTTTCAAAAGTACATAAATAATATATATT [XGTACX_site4694] — lower, 6.43
- AAAAAAAATTCATATTGTACTTTTAAATTAAAGAAA [XGTACX_site4521] — lower, 6.19
- TTTATTTGTTCATGCGTGCACTTGATAACAATGTAC [GTGCAC_site9561] — higher, 8.53
- TTTTTTTTTGTTAAAGTGCATATATTAAATTTTCCT [GTGCAC_site9677] — higher, 7.82
- GGAAAAAAATATAAAAGTACTTTTTATTTATTTTAT [XGTACX_site7418] — lower, 6.2
- TATAATTAAAATTTGTGTACGTATGACAAAACATTT [XGTACX_site7072] — lower, 6.42
- AGATACAAGCACTATAGTACACATACTAAAAATATA [XGTACX_site5849] — lower, 6.48
- TTTCCTTACCCTTTCCTGGTGTAGAAATTATACTCT [TGCATGCA_negctrl_site116] — lower, 6.53
- AAAAAAATAACAAAAGTGCATTTTTATGAGTTATCT — higher, 7.2
- ATATATAATTAATAAAGTACATTAATTATTTCTTTT [XGTACX_site3034] — lower, 5.99
- TTCCTTCAAAATTTAAGTAATAAGATAAAAATATAA [CACACA_negctrl_site1696] — lower, 6.29
- CACAGATAAATTAACACACACACACGGATATTTATA [CACACA_site7788] — higher, 6.69
- ATGTATACAAATATATGTACGTATGTTCTCTTCTTT [XGTACX_site7865] — lower, 6.6
- TAAAGAGTTACCATTTGTACTTACGCACACATAAAA [XGTACX_site3145] — higher, 6.8
- TTTTTATGTTATCAAATAAATATAAATATAATTCAT [CACACA_negctrl_site1522] — lower, 5.89
- TATATTTGAAATATATGTACTTATAATACAGTTTAA [XGTACX_site8039] — lower, 6.42
- TTATATGTATTTCTTTGTACACATTTTTATATATAT [XGTACX_site1462] — higher, 7.16
- TAAATTTTATAAATCTGTACATATGAGCAAGAACAT [XGTACX_site7400] — higher, 8.01
- TATCATTTTTTTAAAACACACATAATAATATAAATA [CACACA_site2845] — higher, 6.66
- CACTTCAAAAAAATATGTACACATATATATATATAT [XGTACX_site3075] — higher, 9.39
- ATTATGCACCAACACACACACACACCCCTAAAAAAT [CACACA_site2568] — higher, 11.5
- GGTAATAAACAATGAAGTACGTAAAGGTAAAATATT [XGTACX_site2647] — higher, 7.27
- TTATTAGGTATATATGCACACAATACCCAAAACAAC [CACACA_site4221] — higher, 9.98
